Laboratory results as given in PubChem BioAssay (NCI).
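Assay format: 96-well plates, 48-hour exposure. At the GI50, growth is halved. TGI marks complete inhibition of growth.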

System: NCI-H322M lung
Experiment: DTP human tumour cell line panel, 48 h

COc1ccc(-c2nc3cc(C)ccc3n2CC(=O)N=Nc2c(O)[nH]c3ccc(OC)cc23)cc1
GI50: 3.8 µM | TGI: 15 µM

Cn1cc(-c2cc(N)n3nc(-c4c[nH]c5ccccc45)cc3n2)c2cc(Br)cnc21
GI50: 2.86 µM | TGI: 13.6 µM
